Measurements: patent publication US20250214977A1, “STAT6 INHIBITORS AND USES THEREOF” (Kymera Therapeutics, Inc., priority 2024, published 2025)

Biological target: T1, biotinylated truncated STAT6 (123-632)-avi (Homo sapiens, UniProt P42226)
T1 sequence (P42226 123-632 limits assumed): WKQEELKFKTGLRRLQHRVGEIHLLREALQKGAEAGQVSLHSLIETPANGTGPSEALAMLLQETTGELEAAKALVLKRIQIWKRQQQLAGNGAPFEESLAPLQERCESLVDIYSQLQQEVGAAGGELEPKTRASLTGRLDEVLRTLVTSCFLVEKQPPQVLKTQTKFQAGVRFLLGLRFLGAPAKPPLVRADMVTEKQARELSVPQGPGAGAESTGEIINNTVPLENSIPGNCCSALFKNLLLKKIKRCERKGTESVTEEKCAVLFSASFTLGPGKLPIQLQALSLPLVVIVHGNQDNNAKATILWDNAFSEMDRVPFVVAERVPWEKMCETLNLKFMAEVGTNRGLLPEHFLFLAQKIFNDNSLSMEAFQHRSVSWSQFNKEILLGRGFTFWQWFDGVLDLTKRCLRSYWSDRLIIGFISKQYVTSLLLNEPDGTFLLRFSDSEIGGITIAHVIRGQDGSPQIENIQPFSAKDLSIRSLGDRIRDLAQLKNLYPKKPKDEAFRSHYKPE
Experiment: Homogenous Time-Resolved Fluorescence (HTRF) binding assay
Settings: 0.15 nM biotinylated truncated STAT6 (123-632)-avi, 20 nM fluorescein-labeled probe

| Compound | IC50 (30 minutes at room temperature) | IC50 (30 minutes room temperature) |
| --- | --- | --- |
| COc1ccccc1-c1cc(C2=CCCN(C(=O)CCn3ccnn3)C2)c(F)c2[nH]c(C(=O)N3CCN(c4c(F)cc(F)cc4OC)CC3)cc12 [Example I-432] | < 100 nM | – |
| COC(=O)c1cnc2cc(N3CCN(C(=O)c4cc5c(-c6ccccc6OC)cc(C6=CCCN(C(=O)CCn7ccnn7)C6)c(F)c5[nH]4)CC3)ccc2c1 [Example I-1462] | – | < 100 nM |
| COc1ccccc1-c1cc(C2=CCCN(C(=O)CCn3ccnn3)C2)c(F)c2[nH]c(C(=O)N3Cc4c(C)nn(C)c4C3)cc12 [Example I-509] | < 100 nM | – |
| 5-(1-(2-formyl-1,2,3,4-tetrahydroisoquinoline-3-carbonyl)-1,2,5,6-tetrahydropyridin-3-yl)-7-(2-methoxyphenyl)-N,N-dimethylbenzofuran-2-carboxamide [Example I-803] | < 100 nM | – |
| C#Cc1cc(C2=CCCN(C(=O)CCn3ccnn3)C2)cc2cc(C(=O)N(C)C)oc12 [Example I-23] | 100 to 1000 nM | – |
| CCn1ncc(CN(CCO)C(=O)c2cc3c(-c4ccccc4OC)cc(C4=CCCN(C(=O)CCn5ccnn5)C4)c(F)c3[nH]2)c1C [Example I-1617] | – | 1000 to 10000 nM |
| CN(C)C(=O)c1cc2cc(C3=CCCN(C(=O)CCc4ccc5ccccc5c4)C3)ccc2o1 [Example I-266] | 10000 to 100000 nM | – |
| COc1ccccc1-c1cc(C2=CCCN(C(=O)CCn3ccnn3)C2)c(F)c2[nH]c(C(=O)N3CCN(c4ncccn4)CC3)cc12 [Example I-863] | < 100 nM | – |
| COc1c[nH]c(=O)cc1-c1cc(C2=CCCN(C(=O)CCn3ccnn3)C2)c(F)c2[nH]c(C(=O)N(C)C)cc12 [Example I-1574] | – | < 100 nM |
| CN(C)C(=O)c1cc2cc(C3=CCCN(C(=O)C4Cc5ccccc5CN4C)C3)ccc2o1 (stereo not drawn) [Example I-285] | 10000 to 100000 nM | – |
| COc1ccccc1-c1cc(C2=CCCN(C(=O)CCn3ccnn3)C2)c(F)c2[nH]c(C(=O)N3CCN(c4c(OC)cccc4Oc4ccccc4)CC3)cc12 [Example I-414] | 100 to 1000 nM | – |
| CN(C)C(=O)c1cc2cc(C3=CCCN(C(=O)CCc4ccc5c(c4)OCO5)C3)ccc2o1 [Example I-282] | 10000 to 100000 nM | – |
| CN(C)C(=O)c1cc2cc(C3=CCCN(C(=O)CCn4ccnn4)C3)cc(NC3CCCC3)c2o1 [Example I-874] | 100 to 1000 nM | – |
| CNc1ccc(-c2cc(C3=CCCN(C(=O)CCn4ccnn4)C3)cc3cc(C(=O)N(C)C)oc23)cc1 [Example I-204] | < 100 nM | – |
| CN(C)C(=O)c1nc2cc(C3=CCCN(C(=O)CCc4ccccn4)C3)ccc2[nH]1 [Example I-199] | 10000 to 100000 nM | – |
| COc1ccccc1-c1cc(C2=CCCN(C(=O)CCn3ccnn3)C2)c(F)c2[nH]c(C(=O)N3CCC[C@H]3c3ccccn3)cc12 [Example I-1594] | – | 100 to 1000 nM |
| O=C(CCn1ccnn1)N1CCC=C(c2ccc3oc(-c4cnc5[nH]ccc5c4)cc3c2)C1 [Example I-1275] | – | 10000 to 100000 nM |
| CN(C)C(=O)c1nc2ccc(C3=CCCN(C(=O)CCn4ccnn4)C3)cc2o1 [Example I-1321] | – | 10000 to 100000 nM |
| CCn1cc2c(n1)CN(C(=O)c1cc3c(-c4ccccc4OC)cc(C4=CCCN(C(=O)CCn5ccnn5)C4)c(F)c3[nH]1)C2 [Example I-505] | 10000 to 100000 nM | – |
| COc1ccccc1-c1cc(C2=CCCN(C(=O)CCn3ccnn3)C2)c(F)c2[nH]c(CN3CCN(c4ncccc4OC)CC3=O)cc12 [Example I-1171] | 100 to 1000 nM | – |
| CCc1nc(C)ccc1-c1cc(C(=O)N2Cc3cnn(CC)c3C2)cc2cc(C3=CCCN(C(=O)CCn4ccnn4)C3)n(CC3CC3)c12 [Example I-535] | > 100000 nM | – |
| COc1ccccc1-c1cc(C2=CCCN(C(=O)CCn3ccnn3)C2)c(F)c2[nH]c(C(=O)N3CCN(c4c(C)ccc5c4cnn5C)CC3)cc12 [Example I-928] | < 100 nM | – |
| COc1cccnc1N1CCN(C(=O)c2cc3c(-n4ccccc4=O)cc(C4=CCCN(C(=O)CCn5ccnn5)C4)c(F)c3[nH]2)CC1 [Example I-807, 1-(6-(1-(3-(1H-1,2,3-triazol-1-yl)propanoyl)-1,2,5,6-tetrahydropyridin-3-yl)-7-fluoro-2-(4-(3-methoxypyridin-2-yl)piperazine-1-carbonyl)-1H-indol-4-yl)pyridin-2(1H)-one] | < 100 nM | – |
| COC(=O)C1(NC(=O)c2cc3c(-c4ccccc4OC)cc(C4=CCCN(C(=O)CCn5ccnn5)C4)c(F)c3[nH]2)CC1 [Example I-1392] | – | < 100 nM |
| COc1cc(F)cnc1N1CCN(C(=O)c2cc3c(-c4ccc(C(=O)N5CCCC5)c(F)c4)cc(C4=CCCN(C(=O)CCn5ccnn5)C4)c(F)c3[nH]2)CC1 [Example I-1144] | < 100 nM | – |
| CC1CN(C(=O)c2cc3cc(C4=CCCN(C(=O)CCn5ccnn5)C4)ccc3o2)CC(=O)N1 (stereo not drawn) [Example I-1602] | – | 1000 to 10000 nM |
| CCc1ccc(-c2cc(C(=O)N3CCN(c4ncc(F)cc4OC)CC3)cc3cc(C4=CCCN(C(=O)CC(=O)O)C4)n(CC(C)C)c23)c(C)n1 [Example I-1222] | – | < 100 nM |

| Compound | IC50 (30 minutes at room temperature) | IC50 (30 minutes room temperature) |
| --- | --- | --- |
| COC(=O)C1(NC(=O)c2cc3c(-c4ccccc4OC)cc(C4=CCCN(C(=O)CCn5ccnn5)C4)c(F)c3[nH]2)COC1 [Example I-1367] | – | 100 to 1000 nM |
| COc1cc(F)cnc1N1CCN(C(=O)c2cc3c(-c4ccc(C(=O)N5CCCC5)cc4F)cc(C4=CCCN(C(=O)CCn5ccnn5)C4)c(F)c3[nH]2)CC1 [Example I-1143] | < 100 nM | – |
| CN(C)C(=O)c1cc2cc(C3=CCCN(C(=O)CCc4ccccn4)C3)ccc2[nH]1 [Example I-200] | 1000 to 10000 nM | – |
| CN(C)C(=O)c1[nH]c2c(F)c(C3=CCCN(C(=O)CCn4ccnn4)C3)ccc2c1-c1ccccc1 [Example I-1587] | – | 100 to 1000 nM |
| COc1ccccc1-c1cc(C2=CCCN(C(=O)CCn3ccnn3)C2)c(F)c2[nH]c(C(=O)N3CCC(c4cccc(Cl)c4Cl)C3)cc12 (stereo not drawn) [Example I-1593] | – | 100 to 1000 nM |
| COc1ccccc1-c1cc(C2=CCCN(C(=O)CCn3ccnn3)C2)c(F)c2[nH]c(C(=O)N(C)C[C@H](O)COc3cccc4ccccc34)cc12 [Example I-1618] | – | 1000 to 10000 nM |
| COc1ccccc1-c1cc(C2=CCCN(C(=O)CCn3ccnn3)C2)c(F)c2[nH]c(C(=O)N3CCN(CC4(C)COC4)CC3)cc12 [Example I-1183] | < 100 nM | – |
| COc1cc(F)cnc1N1CCN(C(=O)c2cc3c(-c4ccccc4C4CC4)cc(C4=CCCN(C(=O)CCn5ccnn5)C4)c(F)c3[nH]2)CC1 [Example I-645] | < 100 nM | – |
| C[C@@H](O)C(=O)N1CCC=C(c2ccc3cc(C(=O)N(C)C)[nH]c3c2)C1 [Example I-24] | 10000 to 100000 nM | – |
| COc1ccccc1-c1cc(C2=CCCN(C(=O)CCn3ccnn3)C2)c(F)c2[nH]c(C(=O)N3CCN(CCCO)CC3)cc12 [Example I-1616] | – | < 100 nM |
| CN(C)C(=O)c1cc2ccc([C@@H]3CCCN(C(=O)CCn4ccnn4)C3)c(F)c2[nH]1 (single isomer, unassigned) [Example I-1667] | – | 1000 to 10000 nM |
| COc1ccccc1-c1cc(C2=CCCN(C(=O)CCn3ccnn3)C2)c(F)c2[nH]c(C(=O)N3CCN(c4nc5ccccc5o4)CC3)cc12 [Example I-1538] | – | < 100 nM |
| COc1ccccc1-c1cc(C2=CCCN(C(=O)CCn3ccnn3)C2)c(F)c2[nH]c(C(=O)N3CCCN(c4ccc(F)cn4)CC3)cc12 [Example I-850] | < 100 nM | – |
| COc1ccccc1-c1cc(C2=CCCN(C(=O)CCn3ccnn3)C2)c(F)c2[nH]c(C(=O)N3CCN(c4cccnc4)CC3)cc12 [Example I-774] | < 100 nM | – |
| COc1ccncc1-c1cc(C2=CCCN(C(=O)CCn3ccnn3)C2)c(F)c2[nH]c(C(=O)N3CCN(c4nc(C)c(F)cc4OC)CC3)cc12 [Example I-500] | > 100000 nM | – |
| O=C1CN(C(=O)c2cc3cc(C4=CCCN(C(=O)CCn5ccnn5)C4)ccc3o2)c2ccccc2N1 [Example I-1600] | – | 100 to 1000 nM |
| COc1ccccc1-c1cc(C2=CCCN(C(=O)CCn3ccnn3)C2)c(F)c2[nH]c(C(=O)N(C)CC3CC3)cc12 [Example I-1621] | – | < 100 nM |
| COc1ccccc1-c1cc(C2=CCCN(C(=O)CCn3ccnn3)C2)c(F)c2[nH]c(C(=O)N3CCC(N(C)C(C)=O)C3)cc12 (stereo not drawn) [Example I-1592] | – | 1000 to 10000 nM |
| COc1ccccc1-c1cc(C2=CCCN(C(=O)CCn3ccnn3)C2)c(F)c2[nH]c(C(=O)N3CCN(c4cnc(=O)n(C)c4)CC3)cc12 [Example I-1363] | – | < 100 nM |
| COc1cc(Cl)cnc1N1CCN(C(=O)c2cc3c(-c4cnc5ccccc5c4OC)cc(C4=CCCN(C(=O)CCn5ccnn5)C4)c(F)c3[nH]2)CC1 [Example I-1037] | 100 to 1000 nM | – |
| COc1ccncc1-c1cc(C2=CCCN(C(C)=O)C2)c(F)c2[nH]c(C(=O)N3Cc4cnn(C)c4C3)cc12 [Example I-701] | 10000 to 100000 nM | – |
| CNc1ccc(-c2cc(C3=CCCN(C(=O)CCn4ccnn4)C3)cc3[nH]c(C(=O)N(C)C)cc23)c(OC)c1 [Example I-1051] | > 100000 nM | – |
| COc1ccccc1-c1cc(C2=CCCN(C(=O)CCn3ccnn3)C2)c(F)c2[nH]ccc12 [Example I-1277] | – | 10000 to 100000 nM |
| COc1cc(F)c(C)nc1N1CCN(C(=O)c2cc3c(-c4cnc(C)cc4C(C)C)cc(C4=CCCN(C(=O)CCn5ccnn5)C4)c(F)c3[nH]2)CC1 [Example I-740] | < 100 nM | – |
| COc1ccccc1/C=C/c1cc(C2=CCCN(C(=O)CCn3ccnn3)C2)c(F)c2[nH]c(C(=O)N3CCN(c4ncc(F)cc4OC)CC3)cc12 [Example I-1130] | 100 to 1000 nM | – |
| CC(=O)NC(C(=O)N1CCC=C(c2ccc3cc(C(=O)N(C)C)[nH]c3c2)C1)c1cccc(Cl)c1 (stereo not drawn) [Example I-77] | 10000 to 100000 nM | – |
| COc1ccccc1-c1cc(C2=CCCN(C(=O)CCn3ccnn3)C2)c(F)c2[nH]c(C(=O)N3CCN(S(C)(=O)=O)CC3)cc12 [Example I-989] | < 100 nM | – |
